Publication PMC9272661 (Antiviral Research, 2022)

Molecular target: Cathepsin L (CatL) (Homo sapiens, UniProt P07711)
Assay: biochemical

For `CC(C)(C)NC(=O)N[C@H](C(=O)N1C[C@H]2[C@@H]([C@H]1C(=O)NC(CC1CCC1)C(=O)C(N)=O)C2(C)C)C(C)(C)C` (stereo partly shown) [Boceprevir, boceprevir, reference compound], the IC50 was 500 nM.
